In PubChem BioAssay AID686978 (National Center for Advancing Translational Sciences (NCATS), 2013):
In all, about 420,000 compounds went through this assay and about 64,000 (15%) were called active. Inconclusive means that the source gave no clear call. Such entries were picked first, then a sample of the others. The call rests on the fitted dose curve; in most records, active means well fitted inhibition curve with a large enough effect; inconclusive means small, poorly fitted or top-dose-only effect; inactive means flat fitted curve, though single readings scatter. No potency is given beside an inconclusive call; the fits are too rough.

Test: qHTS for Inhibitors of human tyrosyl-DNA phosphodiesterase 1 (TDP1): qHTS in cells in absence of CPT; further: nearly all actives have a fitted effect of over 55% in size
Details: DT40 Tdp1-/- hTDP1 cells, no CPT, ATP luminescence, 48 h; activity change, negative = growth inhibition: at 46.2 µM (top of the series)
Summary of the method: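 A cellular qHTS used chicken DT40 cells lacking endogenous Tdp1 but carrying stably transfected human TDP1. Compounds were applied without camptothecin, and cell growth kinetics were judged by ATP-dependent luminescence after ≥48 hr.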
On the % scale 0 is the no-effect control and ±100 the full control effect; potency means the concentration at half of the fitted maximal effect; tags describe the fitted curve by direction and shape.

SMILES	Potency	activity change, negative = growth inhibition
N[C@@H](Cc1ccccc1)C(=O)N1CCC(C(=O)NCC(=O)Nc2ccc(F)cc2)CC1	inactive	–
Cc1cccnc1NC(=O)C1CCC1	inactive	–
Cc1cc(NC(=O)c2ccccc2)n(-c2ccccc2)n1	inactive	–
Cc1csc(NC(=O)c2c(-c3ccccc3)noc2C)n1	inconclusive [inhibitor, single point]	–
CC(=O)NC(=S)Nc1ccc(-c2nc3ccc(C)cc3s2)cc1	inconclusive [inhibitor, full curve]	–
COc1ccc(/C=C/C(=O)Nc2ccc3nc4n(c(=O)c3c2)CCCC4)cc1OC	inactive	–
O=C(NCC1CC1)c1cccc2c1C(=O)c1ccc(N3CCCC3)cc1S2(=O)=O	inconclusive [inhibitor, single point]	–
CCN(CC)S(=O)(=O)c1ccc(C(=O)NCC2(N3CCOCC3)CCCCC2)cc1	inconclusive [inhibitor, single point]	–
CCOC(=O)C1(CCCc2ccccc2)CCN(C(=O)c2cnc(C)cn2)CC1	active: 20.6 µM	–
COc1cc(Cl)c(C)cc1NC(=O)COC(=O)c1ccc(CN2CCCC2=O)cc1	inactive	–
COc1cc(NC(=O)c2cccc(C)c2)c(Cl)cc1[N+](=O)[O-]	inactive	–
CC(NC(=O)CN(c1ccc(Cl)cc1)S(C)(=O)=O)c1ccccc1 (stereo unspecified)	inactive	–
COc1ccc(C(=O)NC(C(=O)N2CCN(C/C=C/c3ccccc3)CC2)C(C)C)cc1 (stereo unspecified)	inconclusive [inhibitor, single point]	–
CCC(C(=O)NCc1ccncc1)c1ccccc1 (stereo unspecified)	inactive	–
CC1(C)Cc2ccccc2C(CSc2ccccc2C(=O)O)=N1	inconclusive [inhibitor, partial curve]	–
COc1ccccc1N(CC(=O)NC1CC2CCC1C2)S(=O)(=O)c1ccc(C)cc1 (stereo unspecified)	inconclusive [inhibitor, single point]	–
COc1cc(-c2cccc(Cl)c2)cc2c1OCCN(C(=O)CCn1ccc(C)n1)C2	inconclusive [inhibitor, single point]	–
COc1ccc(-n2c(SCC(=O)Nc3nccs3)nc3sc4c(c3c2=O)CCN(C)C4)cc1	inconclusive [inhibitor, single point]	–
COc1ccc(NCc2nn(CC(=O)c3ccc(Br)cc3)c3[n+]2CCCCC3)cc1	active: 16.4 µM	–
O=C(NCc1cccs1)c1ccc2c(c1)sc1nc(-c3ccc(F)cc3)cn12	inconclusive [inhibitor, single point]	–
CC(C)(C)OC(=O)N1CCC[C@H]1c1nnc(SCc2ccccc2)o1	inconclusive [inhibitor, partial curve]	–
Nc1nc2ccc(Cl)cc2[nH]1	inconclusive [inhibitor, single point]	–
CC(C)(C)NC(=O)c1ccc(Sc2ccccc2)c([N+](=O)[O-])c1	active: 8.2 µM	–
Cc1nn(C(=O)c2c([N+](=O)[O-])cnn2C)c(C)c1Cl	inactive	–

SMILES	Potency	activity change, negative = growth inhibition
Clc1ccc(C2[C@H]3CN(CC4CCCCC4)[C@H](c4ccccc4)C34CC2(c2ccccc2)C4)cn1 (stereo partly specified)	inconclusive [inhibitor, single point]	–
CC(C)(C)NC(=O)C(c1ccc(F)cc1)N(Cc1ccccc1Cl)C(=O)c1ccn[nH]1 (stereo unspecified)	inconclusive [inhibitor, single point]	–
CCOC(=O)c1cc(-c2ccc(/C=C3/C(=O)NC(=O)C(C#N)=C3C)o2)ccc1Cl	inconclusive [inhibitor, partial curve]	–
CN(CC(=O)NCC(=O)Nc1ccc(F)cc1)C1CCS(=O)(=O)C1 (stereo unspecified)	inactive	–
Nc1c(C(=O)N2CCOCC2)sc(=S)n1-c1ccccc1	inconclusive [inhibitor, single point]	–
COc1ccc(-c2ccc(C(=O)NCc3cccs3)c3occc23)c(C)c1	inconclusive [inhibitor, single point]	–
O=C(Nc1ccc2c(c1)OCO2)c1ccc(COc2ccc3c(c2)CCC3)o1	inconclusive [inhibitor, single point]	–
COc1c(Cl)cc(C(=O)Nc2cc(-c3nc4ccccc4[nH]3)ccc2C)cc1Cl	inconclusive [inhibitor, single point]	–
COc1ccc(Cn2c(-c3ccccc3)nc3c(c(=O)c4ccccc4n3C)c2=O)cc1	inconclusive [inhibitor, single point]	–
CC(C)OCCCn1c(=O)c2ccccc2n2c(CCC(=O)N3CCN(c4ccccn4)CC3)nnc12	–	inconclusive: -41.2% [inhibitor]
COC(=O)C[C@H]1c2cc(C(F)(F)F)ccc2S(=O)(=O)N1C(C)C	inconclusive [inhibitor, single point]	–
COc1ccccc1C(=O)Nc1nnc([C@@H]2C[C@H](O)[C@@H](CO)O2)s1	inactive	–
C[C@H](CO)N1C[C@H](C)[C@@H](CN(C)S(=O)(=O)c2cn(C)cn2)Oc2c(NC(=O)Nc3ccc(C(F)(F)F)cc3)cccc2C1=O	inactive	–
COc1ccc(N(C(=O)c2ccco2)C(C(=O)NC2CCCC2)c2ccccc2)cc1 (stereo unspecified)	inconclusive [inhibitor, partial curve]	–
C/C(CC(=O)Nc1ccc2c(c1)OCCO2)=N\NC(=O)C(=O)Nc1ccccc1C	inactive	–
O=C(C1CC(=O)N(c2ccc(F)cc2)C1)N1CCC(c2nc3ccccc3[nH]2)CC1 (stereo unspecified)	inactive	–
O=C(CSc1ccc(-c2ccco2)nn1)Nc1ccc(F)cc1	inconclusive [inhibitor, single point]	–
CN(C)CCN(CC1CCCN(Cc2ccccc2F)C1)C(=O)c1ccc(F)cc1 (stereo unspecified)	inactive	–
COc1cccc(S(=O)(=O)NCc2ccc(C(=O)NCc3ccccn3)cc2)c1	active: 0.92 µM	–
CC(C)(C)NC[C@H](O)COc1ccccc1C1CCCC1	active: 10.1 µM	–
COc1ccc(CNCc2ccc(F)cc2)c(OC)c1	–	inconclusive: -32.9% [inhibitor]
CN(c1ccccc1)S(=O)(=O)c1ccc(C(=O)Nc2nnc(C3CC3)s2)cc1	inactive	–
COC(=O)Oc1c(Br)c(=O)oc2ccccc12	–	inconclusive: -32.9% [inhibitor]
CSc1nc(-c2ccccc2)nc(N2CCN(C)CC2)c1C(C)=O	inconclusive [inhibitor, single point]	–

SMILES	Potency	activity change, negative = growth inhibition
CN1CCN(S(=O)(=O)c2ccc(C(F)(F)F)cc2)C(c2ccccc2)C1 (stereo unspecified)	inconclusive [inhibitor, single point]	–
CCn1c(=O)n(CC)c2cc(S(=O)(=O)Nc3cc(C)cc(C)c3C#N)ccc21	inactive	–
Cc1cc(C(=O)N2CCCC(C(=O)c3ccc(Oc4ccccc4)cc3)C2)n[nH]1 (stereo unspecified)	active: 13 µM	–
COc1ccc(-c2cc(C(F)(F)F)nc(SCC(=O)N(C)Cc3cn(C)nc3C)n2)cc1OC	active: 11.6 µM	–
C[C@H]1C(=O)N(c2ccccc2)[C@@H]1c1ccccc1	inactive	–
O=C(Cc1sc(Nc2ccccc2)nc1-c1ccccc1)NCc1ccccc1	inconclusive [inhibitor, single point]	–
COC(=O)c1ccc(NC(=O)C(=O)N2CCN(C(=S)Nc3cccc(OC)c3)CC2)cc1	inconclusive [inhibitor, single point]	–
COc1ccc(CN=Cc2c(C(F)(F)F)[nH][nH]c2=O)cc1	inconclusive [inhibitor, single point]	–
O=C(CSc1nc2ccccc2s1)Nc1ccc(Cl)c(S(=O)(=O)N2CCOCC2)c1	inconclusive [inhibitor, single point]	–
CCn1c(C)c(C2=CCN(S(=O)(=O)c3ccccc3)CC2)c2ccccc21	inconclusive [inhibitor, single point]	–
COc1cc(/C=C2/C(=N)N3C=CSC3=NC2=O)ccc1OCCCOc1c(C)cccc1C	inconclusive [inhibitor, partial curve]	–
O=C(NC(=S)Nc1ccc(Oc2ccc(Cl)cc2)cc1)c1ccccc1	active: 20.6 µM	–
Cc1ccc(N2C(=O)CS(=O)(=O)C23C(=O)Nc2ccccc23)cc1C (stereo unspecified)	inactive	–
CC1=C(C(=O)OCc2ccccc2)C(c2ccccc2OS(=O)(=O)c2ccccc2[N+](=O)[O-])NC(=O)N1CCCC(=O)O (stereo unspecified)	inconclusive [inhibitor, single point]	–
O=C(Nc1ccccc1C(F)(F)F)N1CCOc2ccc(Cl)cc21	inactive	–
CCC(/C=C1\Sc2ccc(OC)cc2N1CC)=C\c1sc2ccc(OC)cc2[n+]1CCCS(=O)(=O)[O-]	active: 1.84 µM	–
COc1ccc([N+](=O)[O-])cc1C(=O)Nc1ccc(OCC(=O)N2CCOCC2)cc1	inactive	–
CN(C(=O)COC(=O)CSc1ccccc1)c1c(N)n(Cc2ccccc2)c(=O)[nH]c1=O	inactive	–
CSc1ncnc2c1ncn2CC(=O)C1CCC2C3CCC4=CC(=O)CCC4(C)C3CCC12C (stereo unspecified)	active: 5.8 µM	–
CCN(CC(=O)Nc1ccccc1OC)C(=O)CCOc1ccc(C(C)(C)C)cc1	inconclusive [inhibitor, single point]	–
O=C(OCC(=O)N(c1ccccc1)C1CCCCC1)c1ccc(CO)cc1	inconclusive [inhibitor, single point]	–
Cn1cccc/c1=N\c1cccc[n+]1C	active: 1.03 µM	–
CCc1nc2c(OCC(=O)c3ccc(Cl)cc3Cl)cccn2c1N(C)C(=O)c1ccncc1	inconclusive [inhibitor, single point]	–
